Test results reported in the supplement of paper PMC7826260.
The list shows a part of the results. Viral Rep nickase domains cut single-stranded DNA in vitro at 3 µM enzyme and 37 °C for 1 h; the strands have 90 letters, of which the middle is given. Values are log2 of uncut reads against the no-enzyme pool; uncut sequences lie near 0, cut ones below; no hit call is given. Because reads are shares of a total, they shift together; uncut strands gain when others are lost, and binding without cutting may add a little.

Experiments:
Assay in all cases: uncleaved DNA left, log2 of reads against the no-enzyme library (log2 ratio); higher = less cleavage (more negative = more Rep cleavage of the k-mer); sequences stand for … in CTCGTCCG…ACCGGAGA
[1] = tested on: T1, Rep nickase domain of Muscovy duck circovirus
T1 sequence (residues 1-111, tag not shown): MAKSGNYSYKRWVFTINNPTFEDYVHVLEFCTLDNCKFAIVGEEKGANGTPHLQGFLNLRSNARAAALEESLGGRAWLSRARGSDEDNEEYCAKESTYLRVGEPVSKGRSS
Procedure: (§1)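 A pool of 90-nt single-stranded DNAs with seven random bases just before the constant AC of the nick site (name = the seven bases) was cut by 3 µM recombinant His6-SUMO-tagged Rep nickase domain (300 nM DNA, 50 mM HEPES pH 8.0, 50 mM NaCl, 1 mM MnCl2, 1 h, 37 °C, three replicates). Uncut DNA was amplified and sequenced.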

[2] = tested on: T2, Rep nickase domain of banana bunchy top virus
T2 sequence (residues 1-94, tag not shown): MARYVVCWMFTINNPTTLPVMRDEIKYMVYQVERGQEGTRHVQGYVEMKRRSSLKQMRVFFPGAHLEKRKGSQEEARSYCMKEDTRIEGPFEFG
Procedure: as §1

[3] = tested on: T3, Rep nickase domain of cabbage leaf curl virus
T3 sequence (residues 1-116, tag not shown): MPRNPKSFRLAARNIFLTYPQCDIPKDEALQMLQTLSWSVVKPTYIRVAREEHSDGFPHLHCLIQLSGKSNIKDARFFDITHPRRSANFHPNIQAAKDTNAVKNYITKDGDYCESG
Procedure: as §1

[4] = tested on: T4, Rep nickase domain of chickpea chlorotic dwarf virus
T4 sequence (residues 1-124, tag not shown): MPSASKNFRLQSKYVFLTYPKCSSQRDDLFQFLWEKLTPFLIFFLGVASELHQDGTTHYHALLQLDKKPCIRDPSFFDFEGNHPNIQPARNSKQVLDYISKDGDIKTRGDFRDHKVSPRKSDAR
Procedure: as §1

[5] = tested on: T5, Rep nickase domain of faba bean necrotic yellows virus
T5 sequence (residues 1-98, tag not shown): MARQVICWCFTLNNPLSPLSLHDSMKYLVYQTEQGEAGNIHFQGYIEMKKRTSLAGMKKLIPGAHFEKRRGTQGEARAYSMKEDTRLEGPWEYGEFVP
Procedure: as §1

[6] = tested on: T6, Rep nickase domain of maize striate mosaic virus
T6 sequence (residues 1-117, tag not shown): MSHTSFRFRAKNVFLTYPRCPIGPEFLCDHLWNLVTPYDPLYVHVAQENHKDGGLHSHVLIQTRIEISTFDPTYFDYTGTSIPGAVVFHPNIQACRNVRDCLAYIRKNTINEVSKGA
Procedure: as §1

[7] = tested on: T7, Rep nickase domain of porcine circovirus 2
T7 sequence (residues 2-116, tag not shown): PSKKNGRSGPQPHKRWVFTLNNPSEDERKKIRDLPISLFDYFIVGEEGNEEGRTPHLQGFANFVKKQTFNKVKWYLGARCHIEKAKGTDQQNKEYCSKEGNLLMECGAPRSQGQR
Procedure: as §1

[8] = tested on: T8, Rep nickase domain of tomato golden mosaic virus
T8 sequence (residues 1-124, tag not shown): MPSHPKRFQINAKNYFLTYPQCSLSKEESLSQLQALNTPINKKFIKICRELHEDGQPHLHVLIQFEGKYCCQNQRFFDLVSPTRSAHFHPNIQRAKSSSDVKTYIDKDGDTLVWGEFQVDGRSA
Procedure: as §1

[9] = tested on: T9, Rep nickase domain of tomato yellow leaf curl virus
T9 sequence (residues 1-136, tag not shown): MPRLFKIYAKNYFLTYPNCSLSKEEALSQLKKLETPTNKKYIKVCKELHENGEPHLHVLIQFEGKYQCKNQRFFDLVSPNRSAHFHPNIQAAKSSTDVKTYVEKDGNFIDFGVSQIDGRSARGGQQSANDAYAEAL
Procedure: as §1

[10] = tested on: T10, Rep nickase domain of wheat dwarf virus
T10 sequence (residues 1-137, tag not shown): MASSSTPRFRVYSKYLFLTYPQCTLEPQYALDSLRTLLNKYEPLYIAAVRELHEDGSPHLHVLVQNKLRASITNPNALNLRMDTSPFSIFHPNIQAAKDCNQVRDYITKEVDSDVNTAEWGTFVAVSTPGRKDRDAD
Procedure: as §1

Row | Sequence | uncleaved DNA left (log2) [1] | uncleaved DNA left (log2) [2] | uncleaved DNA left (log2) [3] | uncleaved DNA left (log2) [4] | uncleaved DNA left (log2) [5] | uncleaved DNA left (log2) [6] | uncleaved DNA left (log2) [7] | uncleaved DNA left (log2) [8] | uncleaved DNA left (log2) [9] | uncleaved DNA left (log2) [10]
1 | TGTTTAG | 0.0562 | -0.0516 | -0.744 | -0.617 | 0.0233 | -1.37 | 0.124 | -0.0705 | 0.0159 | -0.121
2 | CAGAGCA | 0.00751 | 0.0489 | -0.263 | -0.9 | -0.054 | -0.961 | -2.02 | 0.0185 | 0.106 | -0.0785
3 | CTGGTCT | 0.0226 | -0.0652 | 0.0304 | -1.11 | 0.0377 | -0.286 | -0.18 | 0.0205 | 0.0504 | 0.0445
4 | TCACACG | 0.0645 | -0.112 | -0.822 | -0.784 | 0.0104 | -1.27 | 0.185 | -0.0964 | 0.0403 | -0.151
5 | TTACGAG | -0.00481 | 0.0452 | 0.456 | 0.252 | 0.00392 | 0.47 | 0.132 | -0.0602 | 0.0259 | 0.0616
6 | TCAATTC | 0.0707 | -0.0493 | 0.0925 | -0.128 | -0.0183 | -0.867 | 0.00374 | -0.11 | 0.0101 | 0.0307
7 | TAGGGAC | 0.0751 | 0.105 | 0.882 | 2 | 0.0708 | 2.18 | 0.323 | 0.0952 | 0.118 | 0.188
8 | TTGCGCA | 0.0194 | 0.00458 | -0.781 | 0.00347 | -0.00841 | -0.714 | 0.142 | -0.0473 | 0.0484 | -0.0975
9 | TAGCAAA | 0.0716 | -0.0846 | 0.0534 | -0.524 | 0.0814 | -0.43 | -0.467 | 0.0664 | 0.0544 | -0.104
10 | CAATGCG | -0.00305 | -0.0411 | -0.18 | 1.29 | 0.105 | 0.782 | 0.145 | 0.0351 | 0.0609 | -0.0421
11 | ATCGACG | -0.0343 | 0.0193 | -0.285 | -0.00245 | 0.00811 | 0.027 | 0.154 | 0.102 | -0.168 | -0.00424
12 | CCTGGCC | -0.108 | -0.123 | 0.00252 | 0.319 | -0.246 | 0.311 | -0.0807 | -0.108 | -0.0904 | -0.131
13 | ATGTCAG | -0.12 | -0.107 | -0.697 | -0.525 | 0.0111 | -1.02 | 0.108 | 0.000657 | -0.0908 | -0.16
14 | CCACCGG | -0.0882 | -0.0827 | 0.252 | 0.912 | -0.187 | 1.27 | -0.0594 | -0.0294 | -0.146 | -0.161
15 | CCGGAGG | -0.134 | -0.211 | 0.47 | 0.734 | -0.294 | 0.931 | 0.0514 | -0.0298 | -0.19 | -0.13
16 | GCCCCGA | -0.0692 | 0.0821 | 0.0219 | 0.202 | 0.00467 | -0.218 | 0.0902 | -0.0454 | -0.0917 | -0.0313
17 | TGGGTTT | -0.081 | -0.0863 | 0.545 | 0.836 | -0.103 | 1.7 | 0.0818 | -0.045 | -0.0214 | -0.00951
18 | CCAAGTA | 0.00337 | 0.000659 | -0.125 | -0.532 | 0.0925 | -0.179 | 0.0659 | 0.00875 | -0.0604 | -0.0268
19 | TGACTCG | 0.0554 | -0.0386 | -0.569 | -0.521 | 0.15 | -0.781 | 0.0647 | -0.102 | -0.019 | -0.0872
20 | ATCAAGC | 0.0936 | 0.0867 | -0.0338 | -0.0617 | 0.0466 | -0.846 | 0.166 | 0.103 | 0.00391 | 0.104
21 | TGTTCGC | 0.0195 | -0.0405 | -0.253 | -0.451 | -0.0719 | -0.815 | 0.031 | -0.0602 | 0.0132 | -0.0345
22 | CCGAGAC | 0.0671 | 0.0209 | 0.831 | 1.49 | -0.0426 | 2.05 | -0.0079 | -0.0202 | -0.0639 | 0.102
23 | CCCGTTA | -0.219 | 0.0168 | 0.0725 | -0.912 | -0.0757 | -0.362 | 0.00803 | -0.211 | -0.165 | -0.129
24 | GCCCATA | 0.166 | 0.089 | 0.0899 | 0.255 | -0.0138 | 0.284 | 0.114 | 0.109 | 0.179 | 0.268
25 | TATTGCA | -1.11 | -0.136 | -0.642 | -0.566 | 0.0593 | -0.648 | -0.419 | -0.0215 | 0.104 | -0.0596
26 | ACTTCTA | -0.133 | -0.0854 | -0.188 | -1.65 | 0.148 | -0.665 | -0.121 | 0.0387 | -0.0173 | 0.0172
27 | GATGGGT | 0.117 | 0.0499 | 0.269 | 0.945 | 0.0519 | 1.3 | -0.00431 | 0.11 | -0.0269 | 0.0721
28 | CACCGCA | 0.00254 | 0.101 | -0.338 | -1.48 | 0.0955 | -0.857 | -0.066 | 0.00266 | 0.00879 | -0.101
29 | ACTGCCG | -0.0247 | -0.0313 | -0.89 | -0.514 | 0.0185 | -1.15 | 0.0175 | -0.0677 | 0.0368 | -0.131
30 | TTCGGCG | 0.0675 | 0.00137 | -0.634 | 0.648 | 0.0149 | -0.477 | 0.128 | 0.0601 | 0.105 | -0.0696
